For 41 compounds, relative growth results are on record in the supplement of paper PMC9446081.

Out of some 39,000 compounds screened, about 220 (0.56%) showed activity. This is one part of the list.
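Also: static incubation at 37 °C against the wild-type strain, values averaged over two biological replicates.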

In this test the test system is Escherichia coli K-12 BW25113. Put plainly: relative growth (OD600 normalised to plate interquartile mean) (fraction); higher = less growth inhibition, active = 0.2 or less. The settings on record: 50 µM; LB; incubation time: overnight (16-24 h).
Regarding `CN(C)CC#Cc1ccc([C@H]2[C@@H](CO)N3CCCCN(C(=O)CN(C)C)C[C@@H]23)cc1`, the relative growth is inactive: 1.01.
Under `NCc1ccc(-n2cccc2)cc1` stands inactive: 0.993; under `O=C(C[C@H]1C[C@@H]2c3cc(NS(=O)(=O)c4ccc(F)cc4)ccc3O[C@@H]2[C@@H](CO)O1)N1CCOCC1`, inactive: 1; under `C[C@@H]1CN([C@@H](C)CO)C(=O)c2cccc(NS(=O)(=O)c3ccccc3)c2O[C@@H]1CN(C)C(=O)Nc1cccc2ccccc12`, inactive: 0.983.
In the case of `C[C@@H]1CCCCO[C@@H](CN(C)Cc2ccc(Cl)c(Cl)c2)[C@@H](C)CN([C@H](C)CO)C(=O)c2cc(NS(=O)(=O)c3cn(C)cn3)ccc2O1`, the relative growth is inactive: 1.04.
With `COc1ccc(S(=O)(=O)Nc2ccc3c(c2)C(=O)N([C@@H](C)CO)C[C@@H](C)[C@@H](CN(C)C(=O)Nc2ccccc2)OCCCC[C@@H](C)O3)cc1` the figure was inactive: 1.05; with `CCNC(=O)C[C@H]1CC[C@H](NC(=O)C2CC2)[C@H](CO)O1`, inactive: 1.01.
Under `Cc1ccc(S(=O)(=O)N(C)C[C@@H]2Oc3c(NC(=O)c4cnccn4)cccc3C(=O)N([C@H](C)CO)C[C@H]2C)cc1` stands inactive: 0.989; under `CCCNC(=O)N1C[C@]2(CCN(CC2)C(=O)Cc2cccnc2)c2c([nH]c3cc(ccc23)OC)[C@@H]1CO`, inactive: 1.02; under `COc1ccc(S(=O)(=O)Nc2cccc3c2O[C@H](CN(C)CC2CC2)[C@H](C)CN([C@@H](C)CO)C3=O)cc1`, inactive: 1.01.
`COc1ccc(S(=O)(=O)Nc2cccc3c2O[C@H](CN(C)Cc2ccc(Cl)c(Cl)c2)[C@H](C)CN([C@@H](C)CO)C3=O)cc1`: the relative growth is inactive: 1.02.
`CO[C@@H]1CN(C)C(=O)c2cc(NC(=O)Nc3ccccc3F)ccc2OC[C@@H](C)N(C(=O)Nc2ccccc2F)C[C@H]1C`: the relative growth is inactive: 1.02.
With `C[C@@H]1CN([C@@H](C)CO)C(=O)Cc2cc(NS(=O)(=O)c3cccs3)ccc2O[C@H]1CN(C)C(=O)Nc1cccc2ccccc12` the figure was inactive: 1.03; with `C[C@H](CO)N1C[C@H](C)[C@@H](CN(C)Cc2ccccc2)OCCCC[C@H](C)Oc2ccc(NS(=O)(=O)c3cccs3)cc2C1=O`, inactive: 0.987.
Under `O=c1[nH]cnc2c1ncn2C1CCC(CO)O1` (stereo unspecified) stands inactive: 0.609.
On to `C[C@H](CO)N1C[C@H](C)[C@@H](CN(C)S(=O)(=O)c2cccs2)OCCCC[C@H](C)Oc2ccc(NC(=O)Nc3ccc(F)cc3)cc2C1=O`, for which the relative growth was inactive: 1.05.
Under `COc1cc([C@H]2OC[C@@H]3[C@H]2CO[C@H]3c2cc(OC)c(O[C@@H]3O[C@H](CO)[C@@H](O)[C@H](O)[C@H]3O)c(OC)c2)cc(OC)c1OC` stands inactive: 0.993.
With `C[C@@H]1CN([C@H](C)CO)C(=O)Cc2cc(NC(=O)Cc3cn(C)c4ccccc34)ccc2O[C@H]1CN(C)C(=O)Nc1ccc(C(F)(F)F)cc1` the figure was inactive: 1.01.
`CCC(=O)Nc1ccc2c(c1)OC[C@H](C)N(C(=O)CN1CCOCC1)C[C@@H](C)[C@@H](OC)CN(C)C2=O`: the relative growth was inactive: 1.02.
Under `CC(=O)N1Cc2cc(C(=O)NCc3cc(F)cc(F)c3)nc(-c3cccc(C4=CCCC4)c3)c2[C@@H]1CCO` stands inactive: 0.976; under `COC(=O)[C@H]1OC2(CCCC2)O[C@@H]1C(=O)OC`, inactive: 1.02; under `C[C@H](CO)N1C[C@H](C)[C@@H](CN(C)Cc2ccc(Oc3ccccc3)cc2)Oc2c(NC(=O)Nc3ccccc3)cccc2C1=O`, inactive: 1.03.
With `C[C@@H]1CCCCO[C@@H](CN(C)C(=O)CCC(F)(F)F)[C@@H](C)CN([C@H](C)CO)C(=O)c2cc(NC(=O)CCCCCC(=O)Nc3ccccc3N)ccc2O1` the figure was inactive: 0.951; with `Cc1ccc(S(=O)(=O)Nc2cccc3c2O[C@@H](CN(C)CC2CC2)[C@H](C)CN([C@@H](C)CO)C3=O)cc1`, inactive: 0.993; with `CCNC(=O)N1CCC(N)CC1`, inactive: 1.03.
With `C[C@@H]1CN([C@H](C)CO)C(=O)Cc2cc(NC(=O)c3ccncc3)ccc2O[C@H]1CN(C)Cc1ccc(C(=O)O)cc1` the figure was inactive: 1.02; with `OCCN1CCOCC1`, inactive: 0.982.
On to `C=C[C@H]1CCC=C2C(=O)CCC[C@@H]21`, for which the relative growth is inactive: 1.06.
In the case of `C[C@@H]1CN([C@@H](C)CO)C(=O)c2cc(NC(=O)CCN3CCOCC3)ccc2O[C@@H]1CN(C)S(=O)(=O)c1cn(C)cn1`, the relative growth is inactive: 0.987.
With `C[C@@H]1CN([C@H](C)CO)C(=O)c2cc(NS(=O)(=O)c3ccc(Cl)cc3)ccc2O[C@@H](C)CCCCO[C@@H]1CN(C)Cc1ccc(C(F)(F)F)cc1` the figure was inactive: 1.04; with `C[C@H]1CN([C@@H](C)CO)C(=O)c2cccc(NC(=O)c3nc4ccccc4s3)c2O[C@@H]1CN(C)Cc1ccc(C(F)(F)F)cc1`, inactive: 1; with `NCC[C@H]1CC[C@@H](NC(=O)NC2CCCCC2)[C@@H](CO)O1`, inactive: 1.01.
Under `Nc1ccccc1C(=O)CC(N)C(=O)O` (stereo unspecified) stands inactive: 0.878; under `CCCCC/C=C\C/C=C\C/C=C\C/C=C\CCCC(=O)O`, inactive: 0.881; under `C[C@@H]1CCCCO[C@H](CN(C)C(=O)c2ccncc2)[C@H](C)CN([C@H](C)CO)C(=O)c2cc(NS(C)(=O)=O)ccc2O1`, inactive: 0.993.
For `C[C@@H]1CN([C@@H](C)CO)C(=O)c2cccc(NC(=O)c3cnccn3)c2O[C@@H]1CN(C)Cc1ccc2c(c1)OCO2`, the relative growth is inactive: 1.02.
With `Cc1ccc(S(=O)(=O)Nc2cccc3c2O[C@H](CN(C)S(=O)(=O)c2ccccc2)[C@@H](C)CN([C@@H](C)CO)C3=O)cc1` the figure was inactive: 0.966.
With `CN1C(=O)c2cc(NC(=O)Nc3ccccc3F)ccc2OC[C@H]2O[C@@H](CC(=O)NCc3ccc(-c4ccccc4)cc3)CC[C@@H]21` the figure was inactive: 1.01.
With `C[C@H]([C@@H](N)C(=O)N[C@H](C(=O)O)[C@H]1O[C@@H](n2ccc(O)cc2=O)[C@@H](O)[C@H]1O)[C@@H](C)c1ccc(O)cn1` the figure was inactive: 1.03; with `Cc1cncc2cccc(S(=O)(=O)N[C@H]3CN[C@H](C(=O)NN)C3)c12`, inactive: 1.04; with `CCOC(=O)C(CCc1ccccc1)NC(C)C(=O)N1C(C(=O)O)CC2CCCCC21` (stereo unspecified), inactive: 1.05.
